Over roughly 33,000 sequences, “E-score (-0.5 to 0.5)” has its median near -0.043; the highest 2% begin near 0.37. This is one part of the list.
target: T1, Upc2 (UniProt Q12151); assay: PBM E-score (8-mer binding enrichment) (E-score (-0.5 to 0.5)); higher = stronger / more preferred TF binding; most listed sequences are background and not binding sites; conditions: protein concentration: 200 nM; construct: GST-full length
T1 sequence: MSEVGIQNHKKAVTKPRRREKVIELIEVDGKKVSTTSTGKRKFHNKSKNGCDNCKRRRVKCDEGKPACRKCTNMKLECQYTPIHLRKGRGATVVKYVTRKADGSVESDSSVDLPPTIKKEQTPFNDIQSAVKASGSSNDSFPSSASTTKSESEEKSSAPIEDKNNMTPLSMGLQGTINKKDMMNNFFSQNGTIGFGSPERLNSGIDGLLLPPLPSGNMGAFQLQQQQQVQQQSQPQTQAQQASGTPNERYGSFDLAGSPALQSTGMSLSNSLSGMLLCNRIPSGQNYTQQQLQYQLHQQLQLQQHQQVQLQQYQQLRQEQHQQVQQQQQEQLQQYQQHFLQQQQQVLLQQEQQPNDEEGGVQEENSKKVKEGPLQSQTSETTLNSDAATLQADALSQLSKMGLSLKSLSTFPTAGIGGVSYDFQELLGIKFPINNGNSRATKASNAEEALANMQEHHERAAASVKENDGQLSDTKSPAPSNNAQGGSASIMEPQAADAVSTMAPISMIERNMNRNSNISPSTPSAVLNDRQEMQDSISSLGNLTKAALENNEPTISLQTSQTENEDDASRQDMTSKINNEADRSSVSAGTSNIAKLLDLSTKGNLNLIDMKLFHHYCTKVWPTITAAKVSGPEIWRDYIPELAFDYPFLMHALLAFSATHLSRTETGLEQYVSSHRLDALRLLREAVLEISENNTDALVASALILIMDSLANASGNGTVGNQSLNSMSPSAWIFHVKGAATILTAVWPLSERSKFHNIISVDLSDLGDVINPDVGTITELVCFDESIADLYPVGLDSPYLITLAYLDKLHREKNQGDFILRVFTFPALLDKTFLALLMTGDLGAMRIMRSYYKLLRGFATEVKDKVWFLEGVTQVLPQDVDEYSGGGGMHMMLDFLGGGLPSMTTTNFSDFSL
Experimental: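 Universal 'all 10-mer' protein binding microarrays (Agilent AMADID 015681) probed with GST-tagged S. cerevisiae TFs (full-length or DBD) made by in vitro transcription/translation (PURExpress), about 100-200 nM. Bound TF was detected with fluorescent anti-GST. Each ungapped 8-mer (which stands for itself and its reverse complement) is scored by the PBM enrichment score (E-score), a modified Wilcoxon-Mann-Whitney statistic from -0.5 to +0.5, computed with the Universal PBM Analysis Suite. Scale: above 0.35 generally sequence-specific binding.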

Sequence | PBM E-score
CTCAGTGA | -0.234
AAGTGCTC | -0.223
GCTGTAGA | -0.289
ACAATTCT | -0.0471
ATGATCAG | -0.0343
GAGTATCA | 0.0308
TCGCATCA | 0.209
CAGTAGTA | 0.0376
AATTGTAA | -0.0647
ACAGGGAA | -0.189
AGCCCAGC | 0.0669
TGTTACAA | 0.0136
GTACTCGA | 0.0705
GAGATCTA | -0.00428
CATATGAA | -0.0314
AGCTAATC | -0.0679
TAGCCAGA | -0.0491
GTCCACGA | -0.19
GGAGCTAC | -0.102
ACGCTCGC | 0.239
AGAGTCTG | -0.115
AGGAACGG | 0.322
CTTAAAGA | 0.0545
CATAACAG | -0.138
GCCCACCA | -0.15

Sequence | PBM E-score
CCCAAGCG | -0.031
AACTTGTA | 0.0148
ATTAACAC | 0.00944
CTTTGGTA | -0.298
ACCATAAA | 0.0955
CCCAATAC | -0.0628
ATTTACCC | -0.0274
GGAGTGTA | 0.0865
GAGTGTCA | -0.164
AGAGTGCA | -0.0398
TAGACGAA | 0.197
AAGAACCC | 0.0495
CGAGCGTA | 0.29
CATAGCTC | -0.15
ACAGTGGA | -0.143
CAGGGTCC | -0.157
CAGATTAC | -0.159
ACGATGTA | 0.294
CGATGATA | 0.147
GAATTTGA | -0.0533
TAAGACTA | -0.0702
GAGAATCC | -0.0348
CTTAATAC | 0.0648
ACCTCTCC | -0.078
AAAGATCG | 0.126

Sequence | PBM E-score
CGTCTCAG | -0.0894
AACTCGAG | -0.0678
GAAGGGAA | -0.278
GTGATAAA | 0.0437
GCGTCCAA | -0.147
TGGCGAAA | 0.0587
TAGCACAA | -0.135
CTTCAATA | -0.0591
CAGGGAAG | -0.276
CGGAGAAC | -0.0246
TACGCTCA | 0.196
AACGCATA | 0.198
CTGTGTTC | 0.111
CAATACCC | -0.11
TCCGAAGA | 0.0352
CGCAATAG | 0.103
CGATGGCA | -0.0664
ACCGACGG | 0.108
AACAGTGA | -0.0437
GTACAGTA | 0.212
AGTCACAG | 0.0677
CCCCCGCA | -0.158
CAGAAAGG | -0.157
TTACGCAA | 0.176
GTTGTTCA | 0.0925

Sequence | PBM E-score
TAGTACTA | 0.0412
ACCGCCGG | -0.2
GAATTAAA | 0.0808
CTACGTTA | 0.118
ATTAGGTC | 0.094
AGCACTTA | 0.0453
CTAGATCC | -0.119
CCTAAACC | 0.0842
GCCTGTGA | -0.329
GTCGTCAC | 0.0697
ACGGTGAA | 0.238
ATTATTAG | 0.206
GGTCTCAA | -0.265
AGCATGCT | -0.0433
CGACACAG | 0.122
CCCAACAA | -0.0187
AACTACCA | -0.103
GGTCGTCA | -0.0836
CACCACGG | -0.368
GCTCTGCA | -0.121
AAGCTTAA | 0.0427
CTAAACCC | -0.216
ATTTTGGG | -0.135
CAAACTTA | -0.0208
CACATACA | -0.107

Sequence | PBM E-score
CACCCAGG | -0.0598
CCACGGAG | -0.225
AAGCTAAG | -0.199
TCCAAGAA | -0.193
TTCTCAAA | -0.0571
CCAGTTTC | -0.0827
ATTGGGCG | 0.013
AATCACGC | -0.127
CTATTTAC | 0.104
ATATATTG | -0.0515
GAGCTGAA | 0.0495
TATTGCGA | 0.0831
CTGGTATA | 0.0396
TCCCGCCA | -0.215
GGCTTATA | 0.0715
ACCGAGTA | 0.25
ATAGAGGG | -0.0603
ACTTCTCC | -0.241
ATACCTAT | -0.0502
CGTCTCAC | 0.0219
AATGCAAG | -0.199
CAATCCGC | -0.0821
CGAGAGAC | -0.129
GCGAGTGA | 0.199
AACATCAA | 0.086

Sequence | PBM E-score
TGGTAAAA | 0.00024
ACTAAGAT | 0.126
CGTAGGTC | -0.0765
TCATGTAA | 0.0269
AAATGCGT | 0.177
AGCGGCCC | -0.149
GAGTCTGA | -0.05
CATAGACA | 0.0415
ATTTGTAC | 0.16
CAAGCCTG | -0.326
ATGTTGCC | -0.138
GCGTTCAC | 0.125
ACTACAGT | -0.0341
AAGCTACA | -0.125
ATGCTTAA | 0.0206
CATCACGC | 0.00359
AAGATTAA | -0.102
GAAACCTA | -0.27
GACCCTTA | -0.0817
CATTCCTC | 0.164
CACCTGCG | -0.281
ATATTGGC | -0.138
CCGGGTGA | -0.231
AAGTGCGT | 0.0739
CTCGGCAG | -0.0673

Sequence | PBM E-score
AAGCACCT | -0.268
GCATAAAA | 0.0634
AAGATAGC | -0.0625
AAGCTTTG | -0.102
ATGTGAGC | -0.0772
TCAGGTCA | -0.16
ACTCGTGA | 0.0994
CGTCCCGC | -0.11
AACGTTCG | 0.212
ACTTTAAT | -0.15
ATGCAGTA | 0.0236
GAAAGAGA | -0.0417
ACCGTCCC | -0.194
CTTCTAGA | -0.0794
ATCCGCTG | -0.0853
AACTTCCG | 0.043
GTATTCAA | -0.0211
ACGGAGCG | 0.263
AACAGAAT | -0.174
GTACCCGA | 0.206
ACACTGCT | -0.116
CTCTCCGA | -0.0584
